Test results taken from PubChem BioAssay AID493005 (National Center for Advancing Translational Sciences (NCATS), 2010).
In all, about 340,000 compounds went through this assay and fewer than 10 were called active. This list was built around the results that the source calls inconclusive (neither active nor inactive); the mix of calls is not that of the screen. Calls come from the whole dose curve; as a rule, active = well fitted inhibition curve with a large enough effect in the main read-out, with a control signal flat (not every such curve was filed as active); inconclusive = small, poorly fitted or top-dose-only effect, or effect the other way, or a change in a side signal; inactive = no such curve, though single readings can be large or run the other way. A potency beside an inconclusive call is a rough fit, not a confirmed value. “Side channel” marks fits to a control or component signal instead of the main read-out.

Biological target: Tumor susceptibility gene 101 protein (Homo sapiens) (UniProt Q99816)
Sequence of UniProt Q99816 (Q99816 whole entry, looked up): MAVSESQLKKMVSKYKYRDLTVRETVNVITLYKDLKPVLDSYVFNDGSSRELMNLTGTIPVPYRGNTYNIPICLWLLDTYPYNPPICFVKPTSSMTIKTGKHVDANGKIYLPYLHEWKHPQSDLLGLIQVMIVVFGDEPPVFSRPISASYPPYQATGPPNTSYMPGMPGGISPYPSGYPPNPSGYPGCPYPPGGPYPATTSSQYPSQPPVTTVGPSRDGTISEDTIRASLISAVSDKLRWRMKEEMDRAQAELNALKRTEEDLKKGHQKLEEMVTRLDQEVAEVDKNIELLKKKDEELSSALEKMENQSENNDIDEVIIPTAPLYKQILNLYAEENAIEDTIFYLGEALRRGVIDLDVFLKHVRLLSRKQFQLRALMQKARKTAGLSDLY
Assay: qHTS Assay for Iinhibitors of HIV-1 Budding by Blocking the Interaction of PTAP/TSG101
Details: Fluorescence polarization, FITC-PTAP peptide / Tsg101 binding; series mostly up to 115 µM
How it was run: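 Fluorescence polarization binding of Tsg101 binding domain (10 uM final) to FITC-labeled PTAP peptide (50 nM final) in HEPES pH 7.5 buffer with NaCl, Tween 20, EDTA, TCEP. Compounds added before peptide; binding 20 min at RT.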
Potency is the fitted concentration of half-maximal effect; tags give direction and shape of the fitted curve or compound fluorescence and quenching.

SMILES | Potency
O=C(NCc1ccccc1F)C1CC(=O)N(c2ccc3c(c2)OCCO3)C1 (stereo not drawn) | inactive
O=c1[nH]c(=O)n(-c2cc(Br)c(O)c(Br)c2)cc1Br | inconclusive: 79.4 µM [falling, partial curve]
Cc1ccc(OCc2cc(C(=O)NC3CCCCC3)no2)cn1 | inactive
COc1cc2c3nnc(-c4ccc(F)cc4)c-3cn(Cc3ccc(C)cc3)c2cc1OC | inconclusive: 56.2 µM [fluorescent, side channel, partial curve, poor fit]
Cc1ccc2c(c1)sc(-c1ccc(N(C)C)cc1)[n+]2C | inactive
CCn1cnc2cc(NC(=O)c3ccc(C)cc3)ccc21 | inactive
S=C(NCc1ccco1)Nc1ccc(N2CCOCC2)cc1 | inactive
Cc1c(C(=O)N2CCN(CCc3ccccn3)CC2)oc2ccc(Cl)cc12 | inactive
COC(=O)Cn1cc(/C=C/c2cc[n+](C)cc2)c2ccccc21 | inconclusive: 50.1 µM [fluorescent, side channel, partial curve, poor fit]
Nc1nnc(SCc2nc3scc(-c4ccccc4)c3c(=O)[nH]2)s1 | inconclusive: 79.4 µM [fluorescent, side channel, partial curve, poor fit]
CC(=O)c1sc2nc(-c3cccs3)cc(C(F)(F)F)c2c1N | inconclusive: 50.1 µM [fluorescent, side channel, partial curve, poor fit]
CC(=O)Nc1cccc(C(=O)/C=C/c2ccc(N(C)C)cc2)c1 | inconclusive: 31.6 µM [fluorescent, side channel, partial curve]
CC(=O)Nc1ccc2cc3ccc(NC(C)=O)cc3nc2c1 | inconclusive: 56.2 µM [falling, partial curve, poor fit]
Cn1c(N=Nc2ccc(N3CCOCC3)cc2)[n+](C)c2ccccc21 | inconclusive: 56.2 µM [quencher, side channel, partial curve, poor fit]
CC(C)N1CC=C2C(C#N)=C(N)C(C#N)(C#N)C(c3ccccc3)C2C1 (stereo not drawn) | inactive
Cn1c(C(=O)NCCCN2CCc3ccccc3C2)cc2c(=O)n(C)c3ccccc3c21 | inconclusive: 25.1 µM [quencher, side channel, full curve]
CCCN1C(=O)/C(=C/c2c(N3CCNC(=O)C3CC(=O)OCC)nc3c(C)cccn3c2=O)SC1=S (stereo not drawn) | inconclusive: 14.1 µM [fluorescent, side channel, full curve]
COc1ccc([C@@H]2[C@@H]3C(=O)N(C(C)(C)C)C(=O)[C@@H]3[C@]3(Cc4ccccc4)C(=O)N(c4ccc(Br)cc4)C(=O)N23)cc1 | inactive
COc1ccccc1N1C(=O)C2C(C(=O)c3ccccc3)=NN(c3ccc(C)cc3)C2C1=O (stereo not drawn) | inconclusive: 44.7 µM [fluorescent, partial curve, poor fit]

SMILES | Potency
CCN(CC)CCOc1ccc2c(c1)C(=NNC(=O)c1ccccn1)c1cc(OCCN(CC)CC)ccc1-2 | inconclusive: 50.1 µM [quencher, side channel, partial curve, poor fit]
O=C(c1sc2ccccc2c1Cl)N(Cc1ccco1)C1CCS(=O)(=O)C1 (stereo not drawn) | inactive
Nc1cc(C(=O)O)c(N)c2c1C(=O)c1ccccc1C2=O | inconclusive: 44.7 µM [falling, partial curve]
O=[N+]([O-])c1ccc(-c2ccc(/C=N/Nc3nc(N4CCCC4)nc(N4CCCC4)n3)o2)cc1 | inconclusive: 20 µM [fluorescent, side channel, full curve, poor fit]
CSC1=NSC2=NC(=O)/C(=C/c3coc4ccc(O)cc4c3=O)C(=N)N12 | inconclusive: 25.1 µM [fluorescent, side channel, full curve, poor fit]
COc1ccc(-c2ccc(SCC(=O)c3ccc(F)cc3)nn2)cc1OC | inactive
CCOC(=O)/C(=C/C1=CC(=C/N(C)C)/C(=O)O1)C(C)=O | inconclusive: 56.2 µM [fluorescent, side channel, partial curve, poor fit]
O=C(Cn1cnc2ccccc21)Nc1cccc([N+](=O)[O-])c1 | inactive
Cn1ncc(N=Cc2c(O)ccc3ccccc23)c1C(=O)Nc1cccc(Cl)c1 | inconclusive: 56.2 µM [fluorescent, side channel, partial curve, poor fit]
CC(c1ccc(O)cc1)(c1ccc(O)cc1)c1ccc(CCBr)cc1 | inconclusive: 63.1 µM [fluorescent, side channel, partial curve, poor fit]
COc1ccc(N=Nc2nc3cc(Br)c(Br)cc3n2C)c(OC)c1 | inconclusive: 63.1 µM [fluorescent, side channel, partial curve, poor fit]
Cc1ccccc1N1CCN(c2ccccc2NC(=O)/C=C\C(=O)O)CC1 | inconclusive: 39.8 µM [fluorescent, side channel, partial curve]
CCN1CCN(c2cc(N3CCN(C(=O)c4ccco4)CC3)c3c4c(onc24)-c2ccccc2C3=O)CC1 | inconclusive: 35.5 µM [fluorescent, side channel, partial curve]
CSc1nccc(N2CCN(c3ccc(F)cc3)CC2)n1 | inactive
CCCC(C(=O)O)N1C(=O)/C(=C/c2cccn2C)SC1=S (stereo not drawn) | inconclusive: 50.1 µM [fluorescent, partial curve, poor fit]
CC1CCc2cccc3c2N1c1cc(C#N)c(C#N)cc1O3 (stereo not drawn) | inconclusive: 79.4 µM [fluorescent, side channel, partial curve, poor fit]
FC(F)(F)c1ccc(CN2C[C@@H]3C(c4ccc(C(F)(F)F)cc4)C4(c5cccnc5)CC3(C4)[C@H]2c2ccccc2)cc1 (stereo partly drawn) | inactive
COc1cccc2cc(-c3nc(-c4cccs4)cs3)c(=O)oc12 | inconclusive: 50.1 µM [fluorescent, side channel, partial curve, poor fit]
CCOC(=O)/C(=C/C=C1\Sc2cc(OCC)c(OCC)cc2N1CC)C(C)=O | inconclusive: 39.8 µM [fluorescent, side channel, partial curve]
